According to the supplement of paper PMC8728848:
The list shows a part of the results.

How the values were obtained:
Assay in all cases: glycan array binding signal (z-score within array); higher = stronger binding
Settings in all cases: glycan notation: IUPAC condensed, linker removed
[1] = biological target: GlcNAc(b1-3)Gal(b1-4)GlcNAc(b1-3)GalNAc
Procedure, shortened: (§1)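 From the Consortium for Functional Glycomics database, 3228 arrays were curated, keeping only those whose protein sequence was available. Binding is given as a within-array Z-score averaged across arrays sharing a protein sequence and across linkers. Negative Z-scores can be read as non-binding.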

[2] = biological target: GlcNAc(b1-3)Gal(b1-4)GlcNAc(b1-3)[GlcNAc(b1-3)Gal(b1-4)GlcNAc(b1-3)]GalNAc
Procedure, shortened: as §1

[3] = biological target: GlcNAc(b1-3)Gal(b1-4)GlcNAc(b1-6)[Gal(b1-3)]GalNAc
Procedure, shortened: as §1

[4] = biological target: GlcNAc(b1-3)Gal(b1-4)GlcNAc(b1-6)[GlcNAc(b1-3)Gal(b1-3)]GalNAc
Procedure, shortened: as §1

[5] = biological target: GlcNAc(b1-3)Gal(b1-4)GlcNAc(b1-6)[GlcNAc(b1-3)]Gal(b1-4)GlcNAc
Procedure, shortened: as §1

GlcNAc(b1-3)GalNAc = biological target: GlcNAc(b1-3)GalNAc
Procedure, shortened: as §1

GlcNAc(b1-3)Man = biological target: GlcNAc(b1-3)Man
Procedure, shortened: as §1

[6] = biological target: GlcNAc(b1-3)[GlcNAc(b1-4)][GlcNAc(b1-6)]GlcNAc
Procedure, shortened: as §1

[7] = biological target: GlcNAc(b1-3)[GlcNAc(b1-6)]Gal(b1-4)GlcNAc
Procedure, shortened: as §1

[8] = biological target: GlcNAc(b1-3)[GlcNAc(b1-6)]GalNAc
Procedure, shortened: as §1

[9] = biological target: GlcNAc(b1-4)Gal(b1-4)GlcNAc
Procedure, shortened: as §1

GlcNAc(b1-4)GlcNAc = biological target: GlcNAc(b1-4)GlcNAc
Procedure, shortened: as §1

[10] = biological target: GlcNAc(b1-4)GlcNAc(b1-4)GlcNAc
Procedure, shortened: as §1

[11] = biological target: GlcNAc(b1-4)GlcNAc(b1-4)GlcNAc(b1-4)GlcNAc(b1-4)GlcNAc
Procedure, shortened: as §1

[12] = biological target: GlcNAc(b1-4)GlcNAc(b1-4)GlcNAc(b1-4)GlcNAc(b1-4)GlcNAc(b1-4)GlcNAc
Procedure, shortened: as §1

[13] = biological target: GlcNAc(b1-4)[GlcNAc(b1-6)]GalNAc
Procedure, shortened: as §1

[14] = biological target: GlcNAc(b1-6)Gal(b1-4)GlcNAc
Procedure, shortened: as §1

GlcNAc(b1-6)GalNAc = biological target: GlcNAc(b1-6)GalNAc
Procedure, shortened: as §1

[15] = biological target: GlcNAc6S(b1-3)Gal(b1-4)GlcNAc
Procedure, shortened: as §1

Kdn(a2-3)Gal(b1-3)GalNAc = biological target: Kdn(a2-3)Gal(b1-3)GalNAc
Procedure, shortened: as §1

Kdn(a2-3)Gal(b1-3)GlcNAc = biological target: Kdn(a2-3)Gal(b1-3)GlcNAc
Procedure, shortened: as §1

Kdn(a2-3)Gal(b1-4)Glc = biological target: Kdn(a2-3)Gal(b1-4)Glc
Procedure, shortened: as §1

Kdn(a2-3)Gal(b1-4)GlcNAc = biological target: Kdn(a2-3)Gal(b1-4)GlcNAc
Procedure, shortened: as §1

[16] = biological target: Kdn(a2-3)Gal(b1-4)[Fuc(a1-3)]GlcNAc
Procedure, shortened: as §1

Kdn(a2-6)Gal(b1-4)GlcNAc = biological target: Kdn(a2-6)Gal(b1-4)GlcNAc
Procedure, shortened: as §1

[17] = biological target: Man(a1-2)Man(a1-2)Man(a1-3)Man
Procedure, shortened: as §1

[18] = biological target: Man(a1-2)Man(a1-2)Man(a1-6)[Man(a1-3)]Man
Procedure, shortened: as §1

Man(a1-2)Man(a1-3)Man = biological target: Man(a1-2)Man(a1-3)Man
Procedure, shortened: as §1

[19] = biological target: Man(a1-2)Man(a1-3)[Man(a1-2)Man(a1-6)]Man
Procedure, shortened: as §1

[20] = biological target: Man(a1-2)Man(a1-3)[Man(a1-2)Man(a1-6)]Man(a1-6)[Man(a1-2)Man(a1-2)Man(a1-3)]Man
Procedure, shortened: as §1

[21] = biological target: Man(a1-2)Man(a1-3)[Man(a1-2)Man(a1-6)]Man(a1-6)[Man(a1-2)Man(a1-2)Man(a1-3)]Man(b1-4)GlcNAc(b1-4)GlcNAc
Procedure, shortened: as §1

[22] = biological target: Man(a1-2)Man(a1-3)[Man(a1-6)]Man(a1-6)[Man(a1-2)Man(a1-3)]Man(b1-4)GlcNAc(b1-4)GlcNAc
Procedure, shortened: as §1

[23] = biological target: Man(a1-2)Man(a1-6)[Man(a1-3)]Man(a1-6)[Man(a1-2)Man(a1-2)Man(a1-3)]Man
Procedure, shortened: as §1

[24] = biological target: Man(a1-2)Man(a1-6)[Man(a1-3)]Man(a1-6)[Man(a1-2)Man(a1-2)Man(a1-3)]Man(b1-4)GlcNAc(b1-4)GlcNAc
Procedure, shortened: as §1

Man(a1-3)[Man(a1-6)]Man = biological target: Man(a1-3)[Man(a1-6)]Man
Procedure, shortened: as §1

[25] = biological target: Man(a1-3)[Man(a1-6)]Man(a1-6)[Man(a1-2)Man(a1-3)]Man(b1-4)GlcNAc(b1-4)GlcNAc
Procedure, shortened: as §1

[26] = biological target: Man(a1-3)[Man(a1-6)]Man(a1-6)[Man(a1-3)]Man
Procedure, shortened: as §1

B1: ACA (Amaranthus caudatus) (protein)
chain: MAGLPVIMCLKSNNNQKYLRYQSDNIQQYGLLQFSADKILDPLAQFEVEPSKTYDGLVHIKSRYTNKYLVRWSPNHYWITASANEPDENKSNWACTLFKPLYVEEGNMKKVRLLHVQLGHYTQNYTVGGSFVSYLFAESSQIDTGSKDVFHVIDWKSIFQFPKRYVTFKGNNGKYLGVITINQLPCLQFGYDNLNDPKVAHEMFVTSNGTICIKSTYMNKFWRLSTDDWILVDGNDPRETNEAAALFRSDVHDFNVISLLNMQKTWFIKRFTSGKPGFINCMNAATQNVDETAILEIIELGSNN
glycan array binding signal (z-score) [1]: -0.527
glycan array binding signal (z-score) [2]: -0.435
glycan array binding signal (z-score) [3]: -0.076
glycan array binding signal (z-score) [4]: -0.475
glycan array binding signal (z-score) [5]: -0.004
glycan array binding signal (z-score) (GlcNAc(b1-3)GalNAc): -0.167
glycan array binding signal (z-score) (GlcNAc(b1-3)Man): -0.096
glycan array binding signal (z-score) [6]: -0.364
glycan array binding signal (z-score) [7]: -0.519
glycan array binding signal (z-score) [8]: -0.183
glycan array binding signal (z-score) [9]: -0.887
glycan array binding signal (z-score) (GlcNAc(b1-4)GlcNAc): 0.151
glycan array binding signal (z-score) [10]: -0.316
glycan array binding signal (z-score) [11]: -0.138
glycan array binding signal (z-score) [12]: -0.162
glycan array binding signal (z-score) [13]: -0.14
glycan array binding signal (z-score) [14]: -0.137
glycan array binding signal (z-score) (GlcNAc(b1-6)GalNAc): -0.116
glycan array binding signal (z-score) [15]: -0.092
glycan array binding signal (z-score) (Kdn(a2-3)Gal(b1-3)GalNAc): 1.78
glycan array binding signal (z-score) (Kdn(a2-3)Gal(b1-3)GlcNAc): 0.132
glycan array binding signal (z-score) (Kdn(a2-3)Gal(b1-4)Glc): -0.204
glycan array binding signal (z-score) (Kdn(a2-3)Gal(b1-4)GlcNAc): -0.428
glycan array binding signal (z-score) [16]: -0.028
glycan array binding signal (z-score) (Kdn(a2-6)Gal(b1-4)GlcNAc): 0.346
glycan array binding signal (z-score) [17]: -0.428
glycan array binding signal (z-score) [18]: -0.246
glycan array binding signal (z-score) (Man(a1-2)Man(a1-3)Man): -0.183
glycan array binding signal (z-score) [19]: -0.25
glycan array binding signal (z-score) [20]: -0.266
glycan array binding signal (z-score) [21]: 0.478
glycan array binding signal (z-score) [22]: -0.324
glycan array binding signal (z-score) [23]: -0.199
glycan array binding signal (z-score) [24]: -0.196
glycan array binding signal (z-score) (Man(a1-3)[Man(a1-6)]Man): 0.164
glycan array binding signal (z-score) [25]: 6.44
glycan array binding signal (z-score) [26]: -0.288
